Measurements as given in PubChem BioAssay AID686979 (National Center for Advancing Translational Sciences (NCATS), 2013).
The whole screen tested about 420,000 compounds, of which about 50,000 (12%) were called active. The shares of active, inactive and inconclusive entries below differ from those in the screen. Calls follow the shape of the dose curve; as a rule, active = well fitted inhibition curve with a large enough effect; inconclusive = small, poorly fitted or top-dose-only effect; inactive = flat fitted curve, though single readings scatter. No potency is given beside an inconclusive call; the fits are too rough.

Test: qHTS for Inhibitors of human tyrosyl-DNA phosphodiesterase 1 (TDP1): qHTS in cells in presence of CPT; also: nearly all actives have a fitted effect of over 55% in size
Settings: chicken DT40 Tdp1-/-;hTDP1 cells + 20 nM CPT, ATP luminescence, 48 h; activity change, negative = growth inhibition: at 46.2 µM (top of the series) unless noted
How it was run: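 Cell growth measured by CellTiter-Glo luminescence after a minimum 48 h, 37 C compound exposure with 20 nM CPT in Tdp1-knockout DT40 cells stably expressing hTDP1, seeded 400/well; qHTS titration format.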
% is scaled to controls: 0 for no effect and ±100 for the full control effect; potency is read from the fitted curve at half-maximal effect; tags tell the direction and shape of the fitted curve.

Structure (SMILES)	Potency	activity change, negative = growth inhibition
CC(=O)Nc1cccc(-c2ccnc3c2CC(C)(C(=O)Nc2cccc(OC(F)(F)F)c2)O3)c1 (stereo not given)	inconclusive [inhibitor, single point]	
O=C(Nc1cccc(Cn2cccn2)c1)c1cc2c(s1)CCCC2	inconclusive [inhibitor, single point]	
CCOC(=O)c1ccc(NC(=O)c2cc3c(C)nn(-c4ccccc4Cl)c3s2)s1	inconclusive [inhibitor, partial curve]	
COc1ccc([C@H]2C[C@@H](O)[C@H](n3cc(C4CC4)nn3)CN2C(=O)c2cccs2)cc1	inactive	
Cc1ccc(-c2csc(NC(=O)Cn3cnc4c3c(=O)n(C)c(=O)n4C)n2)cc1C	inconclusive [inhibitor, partial curve]	
O=C1C(=Cc2cccs2)C(=O)c2ccccc21	inactive	
O=C(c1cnn2c1NC(c1ccco1)CC2C(F)(F)F)N1CCN(c2cccc(Cl)c2)CC1 (stereo not given)	active: 16.4 µM	
CN(C)S(=O)(=O)Oc1cccc(C(=O)Nc2ccc(Cl)c(Cl)c2)c1	active: 7.31 µM	
Cc1cc(OCCOCCNC(C)C)cc(C)c1Cl	active: 18.4 µM	
Cc1ccc(Nc2cc(C)nc(-n3nc(C)cc3C)n2)cc1	active: 3.26 µM	
COc1ccc(C2SCC(C(=O)O)N2C(C)=O)cc1OC (stereo not given)	inconclusive [inhibitor, single point]	
CCn1c(=O)n(CC)c2cc(NS(=O)(=O)c3ccccc3)ccc21	inconclusive [inhibitor, single point]	
O=C(c1cc(C(F)(F)F)cc(C(F)(F)F)c1)N1CCC2(CC1)CN(c1ccccn1)C2	active: 4.61 µM	
Cc1sc(NC(=O)CSc2nnc(C)c(=O)[nH]2)c(C#N)c1C	inactive	
O=c1[nH]cc(S(=O)(=O)c2ccccc2)[nH]1	inconclusive [inhibitor, single point]	
COc1ccc(OC)c(NC(=O)C2(C)CCN2Cc2ccc(OC)c3ccccc23)c1 (stereo not given)	inconclusive [inhibitor, single point]	
COc1ccc2c(c1)[C@H]1[C@H](CO2)[C@H](c2ccccc2)[C@]2(C)C(=O)Nc3cc(F)c(F)cc3C(=O)N12	inconclusive [inhibitor, partial curve, poor fit]	
COc1ccc(N2CCN(C(c3cc4ccc(C)cc4[nH]c3=O)c3nnnn3C3CCCC3)CC2)cc1 (stereo not given)	inconclusive [inhibitor, single point]	
Cc1ccsc1/C=N/NC(=O)c1ccncc1	inactive	
COc1ccc(CC(N)c2csc(NC(=O)c3ccc(F)cc3)n2)cc1 (stereo not given)	inconclusive [inhibitor, single point]	
COc1ccc(N2CCN(C(=O)C(=O)c3cccc([N+](=O)[O-])c3)CC2)cc1	inconclusive [inhibitor, single point]	
O=C(NC1CCCCC1)c1ccc2c(c1)sc1nc(-c3ccc(F)cc3)cn12	active: 13 µM	
Cc1cc2oc(=O)cc(CN3CCN(S(=O)(=O)/C=C/c4ccccc4)CC3)c2cc1C		inconclusive: -35.5% [inhibitor]

Structure (SMILES)	Potency	activity change, negative = growth inhibition
Cc1cc(CNC(=O)c2ccc(C)c([N+](=O)[O-])c2)c2ccccc2n1	active: 13 µM	
Cc1ccc(SCCNC(=S)Nc2ccccc2)cc1	inconclusive [inhibitor, single point]	
O=C(Nc1ccccc1)C1=C[C@@H](c2coc3ccccc3c2=O)C[C@@H](OCc2ccc(CO)cc2)O1	inconclusive [inhibitor, single point]	
Cc1ccc(C(=O)N2CCCC2)cc1S(=O)(=O)Nc1cccc(C)c1C	inactive	
COc1cc(SC)ccc1C(=O)NNC(=O)c1cc(C)oc1C	inconclusive [inhibitor, single point]	
COC(=O)c1cnc(SC)nc1C	inactive	
CC1(C)CC2CC(C)(CN2S(=O)(=O)c2ccc(C(=O)Nc3cc(S(=O)(=O)N4CCOCC4)ccc3Cl)cc2)C1 (stereo not given)	active: 3.26 µM	
CCOC(=O)N1CCC(NC(=O)CCc2ccccc2)CC1	inactive	
CCc1ccc(C=C2SC(=S)N(CCCC(=O)Nc3ccc(C(=O)O)cc3)C2=O)cc1	inconclusive [inhibitor, single point]	
COCCn1nnnc1C(C(C)C)N(Cc1ccccc1)Cc1cc2cc(OC)ccc2[nH]c1=O (stereo not given)	inconclusive [inhibitor, single point]	
CCOC(=O)N/N=C\c1cccc(OC)c1OC/C=C/c1ccccc1	inconclusive [inhibitor, single point]	
O=C(CCNc1ccc(Cl)cc1)c1cccs1	active: 25.9 µM	
CCOc1ccccc1OCC(=O)Nc1ccc(S(=O)(=O)N(C)C)cc1	inactive	
CCOc1ccc2[nH]cc(C(=O)NCCc3ccccc3)c(=O)c2c1	inconclusive [inhibitor, partial curve]	
CCOc1cc(N2CCOCC2)c(OCC)cc1NC(=O)C(NC(=O)c1c(F)cccc1F)C(C)C (stereo not given)	inconclusive [inhibitor, single point]	
CCCCN(C(=O)c1ccccc1Cl)C(CC(C)C)c1nc2ccccc2[nH]1 (stereo not given)	active: 20.6 µM	
Cc1nn(C)c(C)c1S(=O)(=O)N(CC(=O)NC1CCCCCC1)c1ccc(C(C)C)cc1	inactive	
CC(=O)c1sc(NC(=O)CCN2C(=O)C3CC=CCC3C2=O)nc1-c1ccccc1 (stereo not given)	inconclusive [inhibitor, single point]	
COc1ccc(OC2C(=O)N(c3cc(C)ccc3C)C2c2ccc(OC)c(OC)c2)cc1 (stereo not given)	inconclusive [inhibitor, single point]	
OC(COc1cccc2ccccc12)CN1CCN(c2ccccn2)CC1 (stereo not given)	inactive	
COc1ccc(OC)c(S(=O)(=O)N2CCCC(C(=O)N3CCC(C(N)=O)CC3)C2)c1 (stereo not given)	inconclusive [inhibitor, single point]	
COc1ccc(N2CCN(CCNC(=O)Nc3ccc(C)c(Cl)c3)CC2)cc1	active: 23.1 µM	
